Measurements: the supplement of paper PMC12067230
The data scatter; read single values as rough.

experiment: amyloid nucleation score relative to library mode (yeast Sup35 reporter selection) (log enrichment difference); higher = more amyloid nucleation; sequences are the first 22 residues of the Bri2 peptide extended by up to 12 random residues; conditions: random library (experiment): 1;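 active = nucleation score significantly above 0 at FDR 0.05; inactive = not significantly above 0 or absent from output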
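Also: [psi-pin-] Saccharomyces cerevisiae expressing SupN fusions, induced by 100 µM Cu2SO4, selected 7 d at 30 °C without adenine and uracil, scored by deep sequencing of output versus input.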

Sequence | amyloid nucleation score
EASNCFAIRHFENKFAVETLICCCFVLPFVWAGK | 5.41
EASNCFAIRHFENKFAVETLICFDRHIIMGLNVD | inactive
EASNCFAIRHFENKFAVETLICRTGSIAQQRVAM | inactive
EASNCFAIRHFENKFAVETLICVMS | 6.83
EASNCFAIRHFENKFAVETLICHVMNRILLEDHA | inactive
EASNCFAIRHFENKFAVETLICFSLICYWWFGSR | 5.16
EASNCFAIRHFENKFAVETLICATILQSATRRLV | -0.372
EASNCFAIRHFENKFAVETLICGQFVSSP | 2.79
EASNCFAIRHFENKFAVETLICHLPSCTPNTEVV | inactive
EASNCFAIRHFENKFAVETLICATMFGHLAILHT | inactive
EASNCFAIRHFENKFAVETLICQNWSRTG | 1.27
EASNCFAIRHFENKFAVETLICFFHSRTC | 0
EASNCFAIRHFENKFAVETLICVPSWQGPGRHPR | -0.111
EASNCFAIRHFENKFAVETLICAEFRAGPLGAAR | inactive
EASNCFAIRHFENKFAVETLICKGMEQDHWSLWV | inactive
EASNCFAIRHFENKFAVETLICVITGRYSLLRCR | inactive
EASNCFAIRHFENKFAVETLICNLVTTSPQPKQW | 2.82
EASNCFAIRHFENKFAVETLICACDFIHRLMSGP | 5.62
EASNCFAIRHFENKFAVETLICMLCLWGCWRWQG | 5.14
EASNCFAIRHFENKFAVETLICVHGVYLALGRVE | 1.33

Sequence | amyloid nucleation score
EASNCFAIRHFENKFAVETLICITMFRCLLYANP | -0.481
EASNCFAIRHFENKFAVETLICVYLA | inactive
EASNCFAIRHFENKFAVETLICGLRKRTKEEEWY | 1.17
EASNCFAIRHFENKFAVETLICWFWALMWELKRG | inactive
EASNCFAIRHFENKFAVETLICGRQCGG | inactive
EASNCFAIRHFENKFAVETLICVNQGYLDILRGG | 6.79
EASNCFAIRHFENKFAVETLICLHLVPFSESVSS | inactive
EASNCFAIRHFENKFAVETLICPWIRA | inactive
EASNCFAIRHFENKFAVETLICKCESRVESHSRS | 7.81
EASNCFAIRHFENKFAVETLICQRPSR | -0.551
EASNCFAIRHFENKFAVETLICGTVDPVIYRRSC | inactive
EASNCFAIRHFENKFAVETLICHSGMCFWTAVWP | inactive
EASNCFAIRHFENKFAVETLICGLTGGGAWSWPP | inactive
EASNCFAIRHFENKFAVETLICLRLVLWPCSRSL | inactive
EASNCFAIRHFENKFAVETLICNVVAVESPPVGW | 4.46
EASNCFAIRHFENKFAVETLICMVHWLLERPSAA | inactive
EASNCFAIRHFENKFAVETLICLR | -0.137
EASNCFAIRHFENKFAVETLICRHAVRCMDGTMC | inactive
EASNCFAIRHFENKFAVETLICTYMDSYRMFRSW | inactive
EASNCFAIRHFENKFAVETLICMMHCYNTAYGML | inactive

Sequence | amyloid nucleation score
EASNCFAIRHFENKFAVETLICFCRYAQEDRGFF | 2.75
EASNCFAIRHFENKFAVETLICRCVNGVLVDP | inactive
EASNCFAIRHFENKFAVETLICCYYSVWPARGLW | 5.01
EASNCFAIRHFENKFAVETLICRVRLEPAITGFG | inactive
EASNCFAIRHFENKFAVETLICGNTFVVVCFCLK | 2.08
EASNCFAIRHFENKFAVETLICLCVAPGERPWRV | 7.13
EASNCFAIRHFENKFAVETLICYFVDRGTRRLGW | 6.24
EASNCFAIRHFENKFAVETLICGPDATKGKCGGR | inactive
EASNCFAIRHFENKFAVETLICKSLRVRPQQAGG | inactive
EASNCFAIRHFENKFAVETLICTRLHFIICVGDE | inactive
EASNCFAIRHFENKFAVETLICVCRYTFMSLLLA | inactive
EASNCFAIRHFENKFAVETLICWML | 6.17
EASNCFAIRHFENKFAVETLICREDEVSSSGALV | inactive
EASNCFAIRHFENKFAVETLICDMATLGPLSVSV | inactive
EASNCFAIRHFENKFAVETLICTSIPECSGEGLS | inactive
EASNCFAIRHFENKFAVETLICCSSNCVAHGRVR | 6.32
EASNCFAIRHFENKFAVETLICFKDCVSGNKCKG | inactive
EASNCFAIRHFENKFAVETLICDMV | inactive
EASNCFAIRHFENKFAVETLICADVRKRMKSRQA | inactive

same assay, conditions: random library (experiment): 2

Sequence | amyloid nucleation score
EASNCFAIRHFENKFAVETLICYCIQND | 8.32
EASNCFAIRHFENKFAVETLICDLCKVS | inactive
EASNCFAIRHFENKFAVETLICDLVISPPQGSFG | inactive
EASNCFAIRHFENKFAVETLICPFSIVDDGTWLV | 2.7
EASNCFAIRHFENKFAVETLICLFRVR | inactive
EASNCFAIRHFENKFAVETLICGMKV | inactive
EASNCFAIRHFENKFAVETLICVLRFI | inactive
EASNCFAIRHFENKFAVETLICEPV | inactive
EASNCFAIRHFENKFAVETLICLILLVWPFILVY | inactive
EASNCFAIRHFENKFAVETLICMLFVDFYYRYLG | inactive
EASNCFAIRHFENKFAVETLICHIYAAGQFYRVC | inactive
EASNCFAIRHFENKFAVETLICVLSPFDW | 4.73
EASNCFAIRHFENKFAVETLICLPNGNEGFCVLR | inactive
EASNCFAIRHFENKFAVETLICVRKYNLRGQSGI | inactive
EASNCFAIRHFENKFAVETLICCWSICVYFISCV | 1.55
EASNCFAIRHFENKFAVETLICTMDFH | 6.52
EASNCFAIRHFENKFAVETLICGVWI | 6.75
EASNCFAIRHFENKFAVETLICCAILLLYGIVHR | 0.589
EASNCFAIRHFENKFAVETLICMSLFQDKASMSE | inactive

Sequence | amyloid nucleation score
EASNCFAIRHFENKFAVETLICGWSRWGYYQFWR | inactive
EASNCFAIRHFENKFAVETLICLVESQCGYWCSR | 3.08
EASNCFAIRHFENKFAVETLICTTWLSECYRGWV | -0.157
EASNCFAIRHFENKFAVETLICRMFYLN | inactive
EASNCFAIRHFENKFAVETLICTEK | inactive
EASNCFAIRHFENKFAVETLICKYFELGIFDQEE | inactive
EASNCFAIRHFENKFAVETLICWYTCRYMCKIEH | inactive
EASNCFAIRHFENKFAVETLICVLCWFGLHTYRV | 3.56
EASNCFAIRHFENKFAVETLICCRYIWIGRISEL | 3.26
EASNCFAIRHFENKFAVETLICVITVRISRSFLC | inactive
EASNCFAIRHFENKFAVETLICESF | inactive
EASNCFAIRHFENKFAVETLICDIMQQGYEVWIG | inactive
EASNCFAIRHFENKFAVETLICFLMI | 6.23
EASNCFAIRHFENKFAVETLICWPMRFYYIYS | inactive
EASNCFAIRHFENKFAVETLICLIVMVTHTGYSL | inactive
EASNCFAIRHFENKFAVETLICCVVR | inactive
EASNCFAIRHFENKFAVETLICLGAMITFNCAGR | 6.23
EASNCFAIRHFENKFAVETLICRMMCCMLGAFDK | 7.4

same assay, conditions: random library (experiment): 3

Sequence | amyloid nucleation score
EASNCFAIRHFENKFAVETLICYTMGMLQLQPVW | inactive
EASNCFAIRHFENKFAVETLICVMVT | inactive
EASNCFAIRHFENKFAVETLICVGEARFGLGLTP | 7.87
EASNCFAIRHFENKFAVETLICCVSYVVIKCTLH | inactive
EASNCFAIRHFENKFAVETLICNHIRRYDITTLC | inactive
EASNCFAIRHFENKFAVETLICDNQSEELLEIVR | inactive
EASNCFAIRHFENKFAVETLICLMLEYRTWAVAR | 0.527
EASNCFAIRHFENKFAVETLICHPLGCDGHDLPK | inactive
EASNCFAIRHFENKFAVETLICDRVGTKNLCLRG | inactive
EASNCFAIRHFENKFAVETLICGTLMTTTNDRWC | 7.81
EASNCFAIRHFENKFAVETLICLLVSGRHRYA | 3.15
EASNCFAIRHFENKFAVETLICKTRVGPNSVS | inactive
EASNCFAIRHFENKFAVETLICARAFMGLVRAAD | -0.0612
EASNCFAIRHFENKFAVETLICGRSRGDETSMMV | inactive
EASNCFAIRHFENKFAVETLICQRVNARTLRVHR | inactive
EASNCFAIRHFENKFAVETLICVISGIKVFGWLW | inactive
EASNCFAIRHFENKFAVETLICVWRGLEVRTLRR | inactive
EASNCFAIRHFENKFAVETLICVLIQAEHDGGMM | 6.22
EASNCFAIRHFENKFAVETLICLKSLAWTGYGRF | inactive
EASNCFAIRHFENKFAVETLICVKVG | inactive
EASNCFAIRHFENKFAVETLICLVGRSAGDKFLG | 1.41
EASNCFAIRHFENKFAVETLICATRMRCG | inactive
EASNCFAIRHFENKFAVETLICYSNAFLFTYC | inactive
EASNCFAIRHFENKFAVETLICICKWLWPVWNEA | inactive
